From PubChem BioAssay AID2147 (National Center for Advancing Translational Sciences (NCATS), 2009)
Out of some 230,000 compounds screened, about 3,600 (1.6%) were called active. The inconclusive results got no clear call from the source; some entries with a clear call stand among them for comparison. The call rests on the fitted dose curve; in most records, active means well fitted inhibition curve with a large enough effect (not every such curve was filed as active); inconclusive means small, poorly fitted or top-dose-only effect, or another doubt; inactive means no such curve, though single readings can be large or run the other way. Potencies beside an inconclusive call are fits to weak or partial responses and may not hold up.

target: Lysine-specific demethylase 4E (Homo sapiens) (UniProt B2RXH2); test: qHTS Assay for Inhibitors of Human Jumonji Domain Containing 2E (JMJD2E); details: JMJD2E catalytic domain, FDH-coupled NADH fluorescence (FDH is formaldehyde dehydrogenase); series mostly up to 57.1 µM
Sequence of UniProt B2RXH2 (B2RXH2 whole entry, looked up, the tested form may be a part): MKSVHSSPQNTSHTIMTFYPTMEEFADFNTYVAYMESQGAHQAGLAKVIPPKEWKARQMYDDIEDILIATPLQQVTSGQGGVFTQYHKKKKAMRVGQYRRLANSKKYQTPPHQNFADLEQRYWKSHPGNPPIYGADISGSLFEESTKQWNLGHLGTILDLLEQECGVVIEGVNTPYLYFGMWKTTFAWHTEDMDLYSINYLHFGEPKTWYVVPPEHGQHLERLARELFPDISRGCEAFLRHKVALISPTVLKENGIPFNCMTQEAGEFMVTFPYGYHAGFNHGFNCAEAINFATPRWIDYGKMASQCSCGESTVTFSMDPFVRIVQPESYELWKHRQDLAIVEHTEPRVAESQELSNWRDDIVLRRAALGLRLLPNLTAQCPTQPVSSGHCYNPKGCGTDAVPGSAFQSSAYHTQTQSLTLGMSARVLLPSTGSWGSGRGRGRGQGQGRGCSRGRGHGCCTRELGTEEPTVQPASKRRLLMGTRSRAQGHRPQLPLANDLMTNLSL
Further: nearly all actives have a fitted effect of over 50% in size.
Potency means the concentration at half of the fitted maximal effect; tags describe the fitted curve by direction and shape.

| Structure (SMILES) | Potency |
| --- | --- |
| Cc1nc(C(F)(F)F)nc(Nc2ccc(Br)cc2)c1C#N | inconclusive: 28.2 µM [inhibitor, single point] |
| OCc1ccc(O)c2ncccc12 | active: 15.8 µM |
| CCOC(=O)c1cc2ccc3ccccc3c2s1 | inconclusive: 25.1 µM [inhibitor, single point] |
| Cc1c(NC(=O)C(C)OC(=O)c2sc3ccccc3c2Cl)c(=O)n(-c2ccccc2)n1C (configuration not stated) | inconclusive: 35.5 µM [inhibitor, single point] |
| CCN(Cc1ccncc1)Cc1nc(CC2CC2)no1 | inconclusive: 28.2 µM [inhibitor, partial curve] |
| COc1ccc2c(c1)[nH]c1c(N3CCSCC3)ncnc12 | inconclusive: 20 µM [inhibitor, partial curve] |
| c1ccc2c(c1)nc(N1CCCCC1)c1ccccc12 | inconclusive: 25.1 µM [inhibitor, partial curve] |
| O=C(c1cccs1)N1N=C(c2ccccc2)CC1c1ccccc1 (configuration not stated) | inconclusive: 35.5 µM [inhibitor, single point] |
| Clc1cccc(-c2ccc(C=Nc3ccc(N4CCOCC4)cc3)o2)c1Cl | inconclusive: 14.1 µM [inhibitor, partial curve] |
| CCN(CC)c1ccc(/C=N/N=C(N)N)c(O)c1 | inconclusive: 25.1 µM [inhibitor, single point] |
| Cn1c(=O)c(C(=O)CN2CCN(Cc3ccc4c(c3)OCO4)CC2)c(N)n(Cc2ccccc2)c1=O | inactive |
| c1ccc2c(CN3CCCCC3)csc2c1 | inactive |
| CCOc1cc(CNC2CCCC2)cc(Cl)c1OCc1ccccc1 | inconclusive: 35.5 µM [inhibitor, single point] |
| COCC(=O)Nc1ccc(OC)c(Cl)c1 | inactive |
| Cc1snc(SCC(=O)c2ccc(Cl)cc2)c1C#N | inconclusive: 39.8 µM [inhibitor, single point] |
| Cc1ccccc1C(=O)N1CCc2cc(-c3nc(NC(=O)Cc4ccc5c(c4)OCO5)sc3C)ccc21 | inactive |
| CCOC(=O)C1CCN(S(=O)(=O)c2ccc(-c3nc4ccccc4s3)s2)CC1 | inconclusive: 11.2 µM [inhibitor, partial curve] |
| O=C(NNC(=S)Nc1ccc(Cl)cc1Cl)c1ccc(N2CCOCC2)c([N+](=O)[O-])c1 | inactive |
| COc1ccc(Oc2cc(C(F)(F)F)nc(N(C)C)n2)cc1 | inconclusive: 35.5 µM [inhibitor, single point] |
| COc1ccccc1N1CCN(C[C@@H](C(=O)NC(C)(C)C)c2ccccc2)CC1 | inconclusive: 20 µM [inhibitor, full curve, poor fit] |
| COc1ccc(NS(=O)(=O)c2ccc(N3CCOCC3)c(NC(=O)c3ccc(OC)cc3)c2)cc1 | inconclusive: 39.8 µM [inhibitor, single point] |
| CCCCNC(=O)N1CCN(C(=O)c2ccco2)CC1 | inactive |
| c1ccc2sc(-c3ccc4c(c3)OCO4)nc2c1 | inconclusive: 31.6 µM [inhibitor, partial curve] |
| O=C(CSCc1ccccc1F)NCc1ccccc1 | inconclusive: 25.1 µM [inhibitor, partial curve, poor fit] |

| Structure (SMILES) | Potency |
| --- | --- |
| O=C(CSc1ccc(-c2ccco2)nn1)N1CCCC1 | inconclusive: 25.1 µM [inhibitor, partial curve] |
| CC(C)OC(=O)c1cccc(C(=O)O)n1 | inactive |
| CC(CN1CCN(c2ccccc2)CC1)c1ccccc1 (configuration not stated) | inconclusive: 28.2 µM [inhibitor, single point] |
| Clc1ccc2oc(-c3cccnc3)nc2c1 | inconclusive: 28.2 µM [inhibitor, single point] |
| Cc1cc(N2C(=O)C(O)=C(C(=O)c3ccc(C)o3)C2c2cccs2)no1 (configuration not stated) | inconclusive: 39.8 µM [inhibitor, single point] |
| COc1ccccc1C1NC=C([N+](=O)[O-])C=C1[N+](=O)[O-] (configuration not stated) | inactive |
| CCCC(=O)Nc1ccc(-c2nc3cc(C)c(C)cc3o2)c(O)c1 | inconclusive: 0.794 µM [inhibitor, partial curve] |
| Cn1c(Sc2ccc(C(=O)O)cc2[N+](=O)[O-])nnc1-c1ccccc1 | inactive |
| Cc1csc2ncc(C(=O)NC(C)c3ccccc3)c(=O)n12 (configuration not stated) | inconclusive: 31.6 µM [inhibitor, partial curve] |
| CCN(CC)CCCNC(=O)c1cc2c(-c3ccc(Cl)cc3)nn(C)c2s1 | inconclusive: 22.4 µM [inhibitor, partial curve] |
| Cc1cccc2c(C(=O)O)cc(-c3cccnc3)nc12 | inconclusive: 28.2 µM [inhibitor, partial curve] |
| Cc1ccc(S(=O)(=O)c2cc3c(=O)n4ccccc4nc3n(Cc3ccco3)c2=N)cc1 | inconclusive: 14.1 µM [inhibitor, partial curve] |
| CCOc1ccc2nc(NC(=O)c3cnccn3)sc2c1 | inconclusive: 17.8 µM [inhibitor, single point] |
| CCC(Sc1ncccc1C(=O)O)C(=O)N1CCOCC1 (configuration not stated) | inactive |
| CN(CC(=O)NCc1ccccn1)S(=O)(=O)c1ccc(Br)cc1 | inactive |
| COc1ccccc1N1CCN(Cc2c[nH]c3ccccc23)CC1 | inactive |
| CC1Sc2ccc(C(=O)O)cc2NC1=O (configuration not stated) | inactive |
| O=C(COc1cccc([N+](=O)[O-])c1)N/N=C/c1ccco1 | inactive |
| COc1ccc(CCN=C(C)C2=C(O)C(c3ccccc3)OC2=O)cc1OC (configuration not stated) | inactive |
| Cc1ccc(C)c(S(=O)(=O)NC(C)C(=O)Nc2ccc(-c3nc4ccccc4s3)cc2)c1 (configuration not stated) | inconclusive: 10 µM [inhibitor, partial curve] |
| Cc1snc(SCC(=O)c2ccc(F)cc2)c1C#N | inactive |
| COC(=O)c1cc(C)sc1NC(=O)C1C2C=CC(CC2)C1C(=O)O (configuration not stated) | inconclusive: 39.8 µM [inhibitor, single point] |
| Oc1ccc(/C=N/Nc2ncnc3nc[nH]c23)cc1 | inconclusive: 20 µM [inhibitor, partial curve] |
| CC[C@H](C)[C@@H](NC(=O)O[C@@H]1C(=O)c2cc(OC)ccc2O[C@H]1c1cccc(OC)c1)C(=O)OC | inconclusive: 39.8 µM [inhibitor, single point] |

| Structure (SMILES) | Potency |
| --- | --- |
| COc1cccc(/C(O)=C2/C(=O)C(=O)N(CCN3CCOCC3)C2c2cccnc2)c1 (configuration not stated) | inconclusive: 35.5 µM [inhibitor, single point] |
| Cc1cccc(NC(=O)c2ccc(N3CCCCC3)c([N+](=O)[O-])c2)n1 | inactive |
| Clc1ccc2c(c1)CNc1c(ncnc1N1CCOCC1)O2 | inconclusive: 25.1 µM [inhibitor, single point] |
| CC(=O)C1=C(O)C(=O)N(Cc2cccnc2)C1c1ccccc1Cl (configuration not stated) | inactive |
| Nc1nc(Br)c2ccccc2c1-c1ccc(F)cc1 | inconclusive: 35.5 µM [inhibitor, single point] |
| CCOC(=O)c1[nH]c2ccccc2c1NC(=S)Nc1ccccc1 | inconclusive: 28.2 µM [inhibitor, single point] |
| COc1ccc(-c2oc(NC(=O)CCl)c(C#N)c2-c2ccc(OC)cc2)cc1 | inconclusive: 39.8 µM [inhibitor, single point] |
| COc1ccc(C(=O)N2CCC(N3CCN(c4ccccc4)CC3)CC2)cc1 | inconclusive: 39.8 µM [inhibitor, single point] |
| Clc1ccc(C2Nc3ccccc3-n3cccc32)cc1 (configuration not stated) | inconclusive: 28.2 µM [inhibitor, partial curve] |
| Cc1c(NC(=O)COC(=O)c2cc(-c3ccc(-c4ccccc4)cc3)nc3ccccc23)c(=O)n(-c2ccccc2)n1C | inconclusive: 12.6 µM [inhibitor, partial curve] |
| COCCN(CCOC)Cc1c(O)ccc2c3c(c(=O)oc12)CCC3 | inconclusive: 7.08 µM [inhibitor, partial curve] |
| O=C(CCC1N=C2c3ccccc3N=C(SCc3ccc(Cl)cc3)N2C1=O)NCc1ccco1 (configuration not stated) | inconclusive: 35.5 µM [inhibitor, single point] |
| O=C(COC(=O)c1ccccc1C(=O)c1ccc(Cl)cc1)NC(c1ccccc1)c1ccccc1 | inactive |
| C=C(C)C(=O)Nc1cccc(C2=NOC3(C2)C[C@H](C(N)=O)N(C(=O)COc2ccc(Cl)cc2)C3)c1 (some centres not stated) | inactive |
| COc1ccc(-c2noc(-c3cccc(OC)c3OC)n2)cc1OC | inconclusive: 35.5 µM [inhibitor, single point] |
| CC(C)(C)C(=O)NC(=S)Nc1sc2c(c1C(N)=O)CCC2 | inactive |
| CN(C)CCCN1C(=O)c2cccc3c(Br)ccc(c23)C1=O | inconclusive: 17.8 µM [inhibitor, partial curve] |
| O=C(O)Cc1csc(-c2cccc(F)c2)n1 | inconclusive: 14.1 µM [inhibitor, partial curve] |
| COc1cc(C)c(NC(=O)C(=S)N2CCCC2)cc1C | inconclusive: 39.8 µM [inhibitor, single point] |
| S=c1[nH]nc(-c2cc3c(s2)-c2ccccc2CC3)o1 | inconclusive: 28.2 µM [inhibitor, partial curve] |
| N#Cc1cn(-c2ccccc2)nc1-c1cc2ccccc2oc1=O | inconclusive: 35.5 µM [inhibitor, partial curve] |
| Cc1ccc2c(Cl)cc(Cl)c(OCC(=O)NCCc3ccccn3)c2n1 | inconclusive: 25.1 µM [inhibitor, partial curve] |
| COc1ccc(-n2c(=S)[nH]c3cc(C(=O)NCCCN4CCCC4=O)ccc3c2=O)cc1OC | inactive |
| O=C1c2cnc3nc(SCc4ccccc4)nn3c2CC2c3ccccc3CCN12 (configuration not stated) | inconclusive: 15.8 µM [inhibitor, partial curve] |
